# PubChem BioAssay AID504845 (National Center for Advancing Translational Sciences (NCATS), 2011)
# Where “and” joins values, the source holds several entries; their conditions need not be identical. Identical values can stand only once. In all, about 390,000 compounds went through this assay and about 150 (0.038%) were called active. Inconclusive results (about 3%) are left out. The call rests on the fitted dose curve; in most records, active means well fitted inhibition curve with a large enough effect; inconclusive means small, poorly fitted or top-dose-only effect; inactive means no such curve, though single readings can be large or run the other way. This is a selection; strong and weak results do not stand in their true shares. More than one record can exist for a structure, and the calls need not agree.
# Molecular target: Regulator of G-protein signaling 4 (Homo sapiens) (UniProt P49798)
# Sequence of UniProt P49798 (P49798 whole entry, looked up): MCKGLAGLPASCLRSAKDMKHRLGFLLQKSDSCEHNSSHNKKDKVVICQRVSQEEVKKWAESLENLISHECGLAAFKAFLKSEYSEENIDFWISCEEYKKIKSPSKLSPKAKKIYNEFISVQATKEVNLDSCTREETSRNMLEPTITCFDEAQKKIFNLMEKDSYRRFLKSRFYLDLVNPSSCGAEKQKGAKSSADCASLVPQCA
# Assay: Inhibitors of Regulator of G Protein Signaling (RGS) 4: qHTS; further: nearly all actives have a fitted effect of over 75% in size
# Conditions: Transcreener GDP fluorescence polarization, RGS4-accelerated GTP hydrolysis; series mostly up to 114 µM; activity change, negative = inhibition: at the top concentration
# Method in brief: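 MLSMR compounds (23 nl, pin-transferred) preincubated 10 min at room temperature with a 500nM (2x) first reagent, then RGS4 at 900nM (2x) plus Transcreener GDP mix added; fluorescence polarization (620/688 nm) read before and after 90 min at 30 °C.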
# On the % scale 0 is the no-effect control and ±100 the full control effect; potency means the concentration at half of the fitted maximal effect.
Structure (SMILES),"activity change, negative = inhibition",Potency
COc1ccc(S(=O)(=O)/N=C2/NC(=O)/C(=C\c3ccco3)S2)cc1,inactive: 8.57%,
Cc1ccc(NC(=O)Cn2nc(C)cc2C)cc1,inactive: 54.2%,
C[C@](N)(Cc1ccc(O)c(O)c1)C(=O)O,,inactive and active: 26.7 µM
OCC[C@@H]1C[C@@H](O)[C@H](O)[C@]2(OCCc3ccccc32)O1,inactive: 2.7%,
CN1C(=O)CC(=O)N(C)c2cc(S(=O)(=O)N(C)Cc3ccccc3)ccc21,inactive: 2.43%,
Cc1ccc(C(=O)N/C(=C\c2cn(C)c3ccccc23)C(=O)NCCCN2CCOCC2)cc1,inactive: 70.9%,
CCCCCCC/C=C\CCCCCCCCC(=O)O,,active: 23.8 µM
NCCCC(=O)O,inactive: -15.9%,
NCCc1cnc[nH]1,,inactive
CC12CCC(C(=O)N(NC(=O)c3cccnc3)C1=O)C2(C)C (centres undefined),inactive: 75.8%,
CCOC(=O)/C(=C/c1c[nH]c2ccccc12)NC(C)=O,inactive: -1.28%,
NS(=O)(=O)c1cc2c(cc1Cl)NC=NS2(=O)=O,,inactive
O=C(O)Cc1c[nH]c2ccc(O)cc12,,inactive and active: 21.2 µM
CC1=C(CC(=O)O)c2cc(F)ccc2/C1=C/c1ccc(S(C)=O)cc1 (centres undefined),inactive: -14.5%,
CS/C(=N\S(=O)(=O)c1cccs1)NC(=O)CSc1nc2ccccc2s1,inactive: -2% [at 11.4 µM],
Cc1ccc(CN2CCN(C3CCOCC3)CC2CCO)cc1 (centres undefined),inactive: 60.5%,
CCCCC/C=C\C/C=C\CCCCCCCC(N)=O,,active: 23.8 µM
CN(C)C/C=C(/c1ccc(Br)cc1)c1cccnc1,inactive: 31.5%,
Cc1ccc2c(c1)c1c3n2CCNC3CCC1 (centres undefined),,inactive
Oc1ccc(/C=C/c2cc(O)cc(O)c2)cc1,inactive: -19.5%,
OCC[C@H]1C[C@@H](O)[C@H](O)[C@]2(OCCc3ccccc32)O1,inactive: -6.17%,
CCCCC[C@H](O)/C=C/C1=C(CCCCCCC(=O)O)C(=O)CC1,inactive: -8.2%,
CCCc1c(-c2ccc(O)cc2)nn(-c2ccc(O)cc2)c1-c1ccc(O)cc1,inactive: -7.67%,
CC(=O)OCC(=O)[C@@]1(O)CCC2C3CCC4=CC(=O)CCC4(C)C3C(=O)CC21C (some centres undefined),inactive: -4.92%,
COc1ccc(/C=C(\NC(=O)c2ccc(OC)cc2)C(=O)NC(CCSC)C(=O)O)cc1 (centres undefined),inactive: 61.1%,
CCOC(=O)C(CSCc1ccccc1)NC(=O)OC(C)(C)C (centres undefined),inactive: 85.9%,

Structure (SMILES),"activity change, negative = inhibition",Potency
C/C(=N\Nc1nncc2ccccc12)c1ccc(OCC(=O)N(C)C)cc1,inactive: 54.1%,
C[C@H]1O[C@@H](O[C@H]2[C@@H](O)C[C@H](O[C@H]3[C@@H](O)C[C@H](O[C@H]4CC[C@@]5(C)[C@H](CC[C@@H]6[C@@H]5C[C@@H](O)[C@]5(C)[C@@H](C7=CC(=O)OC7)CC[C@]65O)C4)O[C@@H]3C)O[C@@H]2C)C[C@H](O)[C@@H]1O,,inactive and active: 1.68 µM
O=C(N/N=C/C(Cl)=C\c1ccccc1)c1ccco1,inactive: -27.6%,
COc1ccccc1NC(=O)c1cccnc1,inactive: 61.1%,
CC[N+](CC)(CC)CCOc1ccc(/C=C/c2ccccc2)cc1,inactive: -22.3%,
O=C(COC(=O)c1ccc2c(c1)S(=O)(=O)c1ccccc1C2=O)NC1CC1,inactive: 54.7%,
CCCCNC(=O)O[C@H]1C[C@@H]2CCN3C(=O)CCC[C@H]([C@H]1CC)[C@H]23,inactive: -22.5%,
Cn1nnnc1Sc1ncnc2scc(-c3ccc(F)cc3)c12,inactive: -28%,
COc1ccc(-c2cc(C(F)(F)F)nc(S(=O)(=O)CCCC(=O)Nc3cccc(O)c3)n2)cc1OC,inactive: -33.6%,
O=C(C1CCCCC1)N1CC(=O)N2CCc3ccccc3C2C1 (centres undefined),inactive: -0.667% [at 56.9 µM],
Nc1nc2ccc(OC(F)(F)F)cc2s1,,inactive
CCc1ccc(-c2nc3ccc(Br)cc3c(C(=O)O)c2C)s1,inactive: -34.8%,
COc1ccc(NC(=O)CCNS(=O)(=O)c2cccc3nonc23)cc1,inactive: -1.55%,
COc1ccc(NC(=O)Cn2cnc3sc(C)c(S(=O)(=O)N4CCN(C)CC4)c3c2=O)cc1OC,inactive: 4.49%,
CCCCCCCCCCCCCCC[C@H](O)[C@H](N)CO,inactive: 10.9% [at 56.9 µM],
O=C(CCc1ccc(O)cc1)c1c(O)cc(O)cc1O,inactive: -4.47%,
CN=C1S/C(=C/c2cn(CC(=O)OC)c3ccccc23)C(=O)N1C,inactive: 2.59%,
CN1CCN(CCCN2c3ccccc3Sc3ccc(C(F)(F)F)cc32)CC1,,inactive and active: 18.9 µM
CN=C(NC#N)NCCSCc1csc(N=C(N)N)n1,inactive: 30% [at 56.9 µM],
OCCN(CCO)c1nc(N2CCCCC2)c2nc(N(CCO)CCO)nc(N3CCCCC3)c2n1,inactive: -0.872%,
Cc1nn(C)c(C)c1C(=O)NN,inactive: 56.7%,
Cc1ccc(S/C(=N/S(=O)(=O)c2ccc(Cl)cc2)c2ccccc2)cc1,inactive: -51.9%,
Nc1cc(Cl)c(NC2=NCCN2)c(Cl)c1,inactive: 37% [at 56.9 µM],
O=C(CCS(=O)(=O)c1cccc2nonc12)Nc1ccc(Br)cc1,inactive: 14.1%,
Cc1ccc(=O)n(-c2ccccc2)c1,,inactive
CCC(=O)NC1Cc2ccccc2C(c2ccccc2)C1 (centres undefined),,active: 23.8 µM

Structure (SMILES),"activity change, negative = inhibition",Potency
CCCCC/C=C/C=C1/C(=O)C=C[C@@H]1C/C=C\CCCC(=O)O,inactive: 340% [at 56.9 µM],
N[C@@H](CS(=O)O)C(=O)O,inactive: 5.56% [at 56.9 µM],
CCS(=O)(=O)c1ncc(Cl)c(C(=O)Nc2ccc(S(=O)(=O)N(C)c3ccccc3)cc2)n1,inactive: -102%,
C=CCC1NS(=O)(=O)OC(CCCC)C1O (centres undefined),inactive: -9.29%,
CC(C)(C)OC(=O)NC(CC(=O)OCc1ccccc1)C(=O)O (centres undefined),inactive: 22.6%,
CCOC(=O)c1c(C)n(C)c2cc(Br)c(C)cc12,inactive: 56.5%,
COc1ccc(N2CCN(C(=O)C3CCN(S(=O)(=O)c4cccs4)CC3)CC2)cc1,inactive: -12.4%,
CN1C(=O)CC[C@H]1c1cccnc1,inactive: 38.7% [at 56.9 µM],
NC(=O)CCCCn1ccc(NC(N)=NCC(F)(F)F)n1,inactive: 380% [at 56.9 µM],
N[C@@H](Cc1c[nH]c2ccccc12)C(=O)O,inactive: -10.6% [at 56.9 µM],
CC(C)NC[C@@H](O)COc1ccc(CC(N)=O)cc1,inactive: -8.28%,
Nc1ncnc2c1nc(Br)n2C1OC2COP(=O)(O)O[C@@H]2C1O (some centres undefined),inactive: 28.9% [at 56.9 µM],
C[C@@H](NCCc1ccc(O)cc1)[C@@H](O)c1ccc(O)cc1,inactive: -2.7%,
CC1=C/C(=C(/c2cc(C)c(O)c(Br)c2)c2ccccc2S(=O)(=O)O)C=C(Br)C1=O,inactive: -37.7%,
NS(=O)(=O)c1cc2c(cc1Cl)NC(C1CC3C=CC1C3)NS2(=O)=O (centres undefined),inactive: -14.3%,
O=C(O)[C@@H]1C[C@H](C(=O)O)N1,inactive: -6.65%,
COc1ccc(N2CCN(C(=O)CSc3nnc4c(C)cc5cc(C)ccc5n34)CC2)cc1,inactive: 54%,
CC1(C)NC(=O)N(CC(=O)NNC(=O)c2ccccc2F)C1=O,inactive: 56.1%,
C=C(C)[C@H]1CC=C(C)C(=O)C1,inactive: 28.5%,
O=C(NCc1ccco1)c1cnn2cccnc12,inactive: 71.8%,
CCOC(=O)Cc1csc(NC(=O)/C=C/c2ccccc2Cl)n1,inactive: 17.8%,
CCc1ccc(CNC(=O)C2CCCN(c3nnc(C)c4c(C)n(-c5ccccc5)nc34)C2)cc1 (centres undefined),inactive: -9.51%,
N=C(N)c1ccc(N)cc1,inactive: 8.87%,
CC(=O)O[C@H]1C(=O)[C@@]2(C)[C@H]([C@H](OC(=O)c3ccccc3)[C@]3(O)C[C@H](OC(=O)[C@H](O)[C@@H](NC(=O)c4ccccc4)c4ccccc4)C(C)=C1C3(C)C)[C@]1(OC(C)=O)CO[C@@H]1C[C@@H]2O,inactive: 9.3%,
CCCCN1CC(=O)N2[C@H]3c4cc(OC)ccc4OC[C@@H]3[C@H](C(=O)OCC)[C@]2(C)C1=O,inactive: -1.44%,
NC1CONC1=O (centres undefined),inactive: 5.7% [at 56.9 µM],

Structure (SMILES),"activity change, negative = inhibition",Potency
COc1ccccc1N1CCN(C(=O)C2CCCN(S(=O)(=O)c3ccc4c(c3)CCCN4C(C)=O)C2)CC1 (centres undefined),inactive: -3.23%,
CN(C(Cc1ccc(OS(=O)(=O)c2cccc3cnccc23)cc1)C(=O)N1CCN(c2ccccc2)CC1)S(=O)(=O)c1cccc2cnccc12 (centres undefined),inactive: -190% [at 56.9 µM],
COc1cccc(OC2OC3COC(C)(C)OC3C(O)C2NC(C)=O)c1 (centres undefined),inactive: -1.88%,
COCCn1nnnc1C(c1ccc(OC)cc1)N1CCC(C)CC1 (centres undefined),inactive: 67.7%,
COc1ccc(-n2nc3c(N4CCC(C(=O)NCc5ccccc5C)CC4)nnc(C)c3c2C)cc1,inactive: -6.53% [at 11.4 µM],
COc1ccc(N=C2NC(=O)/C(=C/C=C/c3ccccc3)S2)cc1,inactive: 0.531%,
CCCCCC(CC(=O)NO)C(=O)NC(C(=O)N1CCCC1CO)C(C)C (centres undefined),inactive: 21.4%,
COc1ccc(-c2ccc3c(N)c(C(=O)c4ccc(OC)c(OC)c4)sc3n2)cc1,inactive: -27.8%,
C1CCc2nnnn2CC1,,inactive
CCN(C(=O)Cn1cnc2cc([N+](=O)[O-])ccc2c1=O)C1CCS(=O)(=O)C1 (centres undefined),inactive: 81.2%,
CC(C)(C)c1ccc(S(=O)(=O)/C=C/C#N)cc1,,active: 2.12 µM
CCCCC[C@H](O)/C=C/[C@@H]1[C@H]2C/C(=C/CCCC(=O)O)C[C@H]2C[C@H]1O,inactive: 120% [at 56.9 µM],
CCC(=O)N[C@@H]1Cc2ccccc2[C@@H](c2ccccc2)C1,inactive: -36.6% [at 56.9 µM],
COc1ccc(NC(=O)C2CCCN(S(=O)(=O)c3c(C)[nH]c(=O)[nH]c3=O)C2)cc1OC (centres undefined),inactive: 7.4%,
CC(=O)Oc1ccc(C(=O)N2c3ccccc3NC(=O)C2C)cc1 (centres undefined),inactive: 54.8%,
CC1CCN=C(N)S1 (centres undefined),inactive: -22.1%,
CCCCc1ccc(-c2csc(/C(C#N)=C\c3ccc(C)o3)n2)cc1,inactive: -52.3%,
N#C/C(=C\c1ccc(O)c(O)c1)C(=O)NCCCc1ccccc1,inactive: 14.8%,
O=C(O)c1cc2cc(Cc3cccnc3)ccc2o1,inactive: -9.4% [at 56.9 µM],
COc1ccc(-c2csc3nc(-c4ccccc4)oc(=O)c23)cc1OC,inactive: 6.93%,
Nc1ncnc2c1nc(Br)n2[C@H]1O[C@H]2COP(=O)(O)O[C@H]2[C@@H]1O,inactive: -87.8% [at 56.9 µM],
O=S1(=O)CCC(NS(=O)(=O)c2cccc3cccnc23)C1 (centres undefined),inactive: 61.4%,
O=C(CC1SC(=NCc2ccccc2)NC1=O)Nc1ccccc1 (centres undefined),inactive: 55%,
O=C1OC[C@H]2CCCN2C(=O)[C@@H](CC(=O)N(CCO)Cc2ccccc2)C/C=C\C[C@H]1Cc1ccc(F)cc1,inactive: 3.23%,
Cc1ccc(-c2ccc(=O)n(CC(=O)NCc3ccc(F)cc3)n2)cc1,inactive: -42.9%,
Cc1ccc(NP(=O)(Nc2ccc(C)cc2)Nc2ccc(C)cc2)cc1,inactive: 69.5%,
